20 molecules from patent US11178870B2 (priority 2017, dated 2021) can be followed below.

Format in all cases: in vivo
Test [1] relates to Blumeria graminis f. sp. hordei. The test is described as follows: Test Example D: Powdery mildew on barley. To be noted: Powdery mildew on barley.
The subject of another test is Puccinia recondita. The test is described as follows: Test Example E: Brown rust on wheat. To be noted: Brown rust on wheat.
For another test, the system named is Plasmopara viticola. The test is described as follows: Test Example G: Downy mildew on vine. To be noted: Downy mildew on vine; 250 ppm sprayed, 2.5 ml/pot; 7 to 10 days after inoculation.
The next test relates to Botrytis cinerea. The test is described as follows: Test Example B: Gray mold on tomato. The note with it: Gray mold on tomato.
For another test, the system named is Alternaia brassicicola. The test is described as follows: Test Example C: Alternaria sooty spot on cabbage. To be noted: Alternaria sooty spot on cabbage.

Regarding `CCn1c(-c2c(F)cc(F)cc2F)c(-n2c(Cl)ccc2Cl)cc(Cl)c1=O` [Compound 133], in test [1], the “Test D control value” is recorded as “H (H shows the control value more than 50%)”. Moreover, the “Test E control value” in the test on Puccinia recondita is “H (H shows the control value more than 50%)”. For the same molecule, the “Test G control value” in the test on Plasmopara viticola is given as “H (H shows the control value more than 50%)”. Further, in the test with Botrytis cinerea, the “Test B control value” is “H (H shows the control value more than 50%)”. The “Test C control value” with Alternaia brassicicola was “H (H shows the control value more than 50%)”.
On to `CCn1c(-c2c(F)cccc2F)c(-c2cnc(NC)o2)cc(Cl)c1=O` [Compound 134], for which the “Test D control value” in test [1] is on record as “L (L shows the control value of 50% or less)”. In addition, the “Test E control value” with Puccinia recondita is recorded as “L (L shows the control value of 50% or less)”. For the same molecule, in the test on Plasmopara viticola, the “Test G control value” is recorded as “L (L shows the control value of 50% or less)”. Moreover, the “Test B control value” in the test on Botrytis cinerea is reported as “H (H shows the control value more than 50%)”. In the test with Alternaia brassicicola, the “Test C control value” was “L (L shows the control value of 50% or less)”.
Take `CCn1c(-c2c(F)cccc2F)c(-c2cnc(N)o2)cc(Cl)c1=O` [Compound 135]: in test [1], the “Test D control value” is “L (L shows the control value of 50% or less)”. The “Test E control value” in the test on Puccinia recondita is “L (L shows the control value of 50% or less)”. The “Test G control value” in the test on Plasmopara viticola is listed as “H (H shows the control value more than 50%)”. Also, the “Test B control value” in the test on Botrytis cinerea is reported as “L (L shows the control value of 50% or less)”. The “Test C control value” with Alternaia brassicicola is on record as “L (L shows the control value of 50% or less)”.
For the molecule `CCn1c(-c2c(F)cc(F)cc2F)c(-n2cnc(Cl)c2Cl)cc(Br)c1=O` [Compound 139], the “Test D control value” in test [1] is “H (H shows the control value more than 50%)”. The “Test E control value” in the test with Puccinia recondita is “H (H shows the control value more than 50%)”. In addition, the “Test G control value” in the test on Plasmopara viticola is reported as “H (H shows the control value more than 50%)”. In the test on Botrytis cinerea, the “Test B control value” was “H (H shows the control value more than 50%)”. Besides, the “Test C control value” with Alternaia brassicicola is recorded as “H (H shows the control value more than 50%)”.
With `CCn1c(-c2c(F)cc(F)cc2F)c(-n2cc(Cl)c(C)n2)ccc1=O` [Compound 141], the “Test D control value” in test [1] was “H (H shows the control value more than 50%)”. In the test on Puccinia recondita, the “Test E control value” is “H (H shows the control value more than 50%)”. Further, the “Test G control value” in the test on Plasmopara viticola is “L (L shows the control value of 50% or less)”. Also, the “Test B control value” with Botrytis cinerea is recorded as “H (H shows the control value more than 50%)”. Besides, the “Test C control value” with Alternaia brassicicola is “H (H shows the control value more than 50%)”.
For `CCn1c(-c2c(F)cc(F)cc2F)c(-n2cc(Cl)c(C)n2)cc(Cl)c1=O` [Compound 142], in test [1], the “Test D control value” is “L (L shows the control value of 50% or less)”. Moreover, the “Test E control value” with Puccinia recondita is recorded as “L (L shows the control value of 50% or less)”. Also, in the test on Plasmopara viticola, the “Test G control value” was “L (L shows the control value of 50% or less)”. The “Test B control value” with Botrytis cinerea was “L (L shows the control value of 50% or less)”. In the test on Alternaia brassicicola, the “Test C control value” was “H (H shows the control value more than 50%)”.
On to `CCn1c(-c2c(F)cc(OC)cc2F)c(-n2cc(Cl)c(C)n2)cc(Cl)c1=O` [Compound 143], for which the “Test D control value” in test [1] is “L (L shows the control value of 50% or less)”. Also, the “Test E control value” with Puccinia recondita is on record as “H (H shows the control value more than 50%)”. In addition, in the test with Plasmopara viticola, the “Test G control value” is on record as “L (L shows the control value of 50% or less)”. For the same molecule, the “Test B control value” in the test on Botrytis cinerea is on record as “H (H shows the control value more than 50%)”. Further, the “Test C control value” in the test with Alternaia brassicicola is “H (H shows the control value more than 50%)”.
`CCn1c(-c2c(F)cc(F)cc2F)c(-n2cc(Cl)c(C)n2)cc(Br)c1=O` [Compound 144]: in test [1], the “Test D control value” is “L (L shows the control value of 50% or less)”. Further, the “Test E control value” in the test on Puccinia recondita is “L (L shows the control value of 50% or less)”. In addition, the “Test G control value” with Plasmopara viticola is “L (L shows the control value of 50% or less)”. Also, in the test with Botrytis cinerea, the “Test B control value” is given as “L (L shows the control value of 50% or less)”. The “Test C control value” with Alternaia brassicicola is listed as “H (H shows the control value more than 50%)”.
Consider `CCn1c(-c2ccc(F)cc2F)c(-n2cc(Cl)cn2)ccc1=O` [Compound 145], for which the “Test D control value” in test [1] is on record as “H (H shows the control value more than 50%)”. Also, the “Test E control value” with Puccinia recondita was “H (H shows the control value more than 50%)”. Further, the “Test G control value” in the test with Plasmopara viticola is “L (L shows the control value of 50% or less)”. In addition, in the test with Botrytis cinerea, the “Test B control value” is reported as “H (H shows the control value more than 50%)”. In addition, the “Test C control value” with Alternaia brassicicola is on record as “H (H shows the control value more than 50%)”.
As for `CCn1c(-c2c(F)cc(OC)cc2F)c(-n2cc(Cl)c(C)n2)cc(Br)c1=O` [Compound 146], the “Test D control value” in test [1] is recorded as “L (L shows the control value of 50% or less)”. Moreover, in the test on Puccinia recondita, the “Test E control value” is recorded as “H (H shows the control value more than 50%)”. For the same molecule, in the test on Plasmopara viticola, the “Test G control value” is “H (H shows the control value more than 50%)”. Further, the “Test B control value” in the test on Botrytis cinerea was “H (H shows the control value more than 50%)”. The “Test C control value” in the test on Alternaia brassicicola was “H (H shows the control value more than 50%)”.
Turning to `CCn1c(-c2c(F)cc(F)cc2F)c(-n2cc(Br)c(C)n2)cc(Br)c1=O` [Compound 147], the “Test D control value” in test [1] is listed as “L (L shows the control value of 50% or less)”. The “Test E control value” in the test on Puccinia recondita is “L (L shows the control value of 50% or less)”. For the same molecule, in the test with Plasmopara viticola, the “Test G control value” is on record as “L (L shows the control value of 50% or less)”. For the same molecule, the “Test B control value” in the test with Botrytis cinerea was “L (L shows the control value of 50% or less)”. Moreover, the “Test C control value” in the test on Alternaia brassicicola is listed as “H (H shows the control value more than 50%)”.
For the molecule `CCn1c(-c2ccc(OC)cc2F)c(-n2cc(Cl)cn2)cc(Cl)c1=O` [Compound 149], the “Test D control value” in test [1] is “H (H shows the control value more than 50%)”. For the same molecule, the “Test E control value” in the test with Puccinia recondita is listed as “H (H shows the control value more than 50%)”. Also, the “Test G control value” in the test with Plasmopara viticola was “L (L shows the control value of 50% or less)”. Moreover, the “Test B control value” in the test on Botrytis cinerea is recorded as “H (H shows the control value more than 50%)”. In addition, the “Test C control value” with Alternaia brassicicola is recorded as “H (H shows the control value more than 50%)”.
Regarding `CCn1c(-c2ccc(F)cc2F)c(-n2cc(Cl)cn2)cc(Br)c1=O` [Compound 150], the “Test D control value” in test [1] was “H (H shows the control value more than 50%)”. Also, the “Test E control value” in the test on Puccinia recondita is listed as “H (H shows the control value more than 50%)”. The “Test G control value” in the test with Plasmopara viticola is on record as “L (L shows the control value of 50% or less)”. Moreover, the “Test B control value” with Botrytis cinerea is listed as “H (H shows the control value more than 50%)”. Moreover, the “Test C control value” in the test on Alternaia brassicicola is given as “H (H shows the control value more than 50%)”.
In the case of `CCn1c(-c2c(F)cc(OC)cc2F)c(-n2cc(Br)c(C)n2)cc(Br)c1=O` [Compound 151], in test [1], the “Test D control value” is “L (L shows the control value of 50% or less)”. The “Test E control value” in the test with Puccinia recondita is on record as “H (H shows the control value more than 50%)”. In addition, the “Test G control value” with Plasmopara viticola is “L (L shows the control value of 50% or less)”. Also, the “Test B control value” in the test with Botrytis cinerea is given as “H (H shows the control value more than 50%)”. The “Test C control value” in the test with Alternaia brassicicola is “H (H shows the control value more than 50%)”.
Consider `CCn1c(-c2c(F)cccc2F)c(-n2ncc(C)c2Cl)ccc1=O` [Compound 153], for which the “Test D control value” in test [1] was “H (H shows the control value more than 50%)”. Moreover, in the test on Puccinia recondita, the “Test E control value” is “H (H shows the control value more than 50%)”. Also, the “Test G control value” in the test with Plasmopara viticola was “H (H shows the control value more than 50%)”. The “Test B control value” in the test with Botrytis cinerea is given as “H (H shows the control value more than 50%)”. The “Test C control value” with Alternaia brassicicola is on record as “H (H shows the control value more than 50%)”.
Consider `CCn1c(-c2c(F)cc(F)cc2F)c(-n2cc(C(F)(F)F)cn2)cc(C(F)(F)F)c1=O` [Compound 154], for which the “Test D control value” in test [1] was “L (L shows the control value of 50% or less)”. In the test on Puccinia recondita, the “Test E control value” is “L (L shows the control value of 50% or less)”. The “Test G control value” in the test on Plasmopara viticola is given as “L (L shows the control value of 50% or less)”. Further, the “Test B control value” in the test on Botrytis cinerea is reported as “L (L shows the control value of 50% or less)”. For the same molecule, the “Test C control value” with Alternaia brassicicola was “L (L shows the control value of 50% or less)”.
As to `CCn1c(-c2c(F)cc(F)cc2F)c(-n2cc(C(F)(F)F)cn2)cc(Cl)c1=O` [Compound 155], in test [1], the “Test D control value” is recorded as “L (L shows the control value of 50% or less)”. Also, in the test with Puccinia recondita, the “Test E control value” is recorded as “L (L shows the control value of 50% or less)”. Moreover, the “Test G control value” in the test with Plasmopara viticola is “L (L shows the control value of 50% or less)”. Besides, the “Test B control value” in the test with Botrytis cinerea was “L (L shows the control value of 50% or less)”. Moreover, the “Test C control value” with Alternaia brassicicola is listed as “H (H shows the control value more than 50%)”.
For `CCn1c(-c2ccc(F)cc2Cl)c(-n2cc(Cl)cn2)cc(Br)c1=O` [Compound 158], the “Test D control value” in test [1] is reported as “H (H shows the control value more than 50%)”. For the same molecule, the “Test E control value” in the test on Puccinia recondita is recorded as “H (H shows the control value more than 50%)”. Further, the “Test G control value” in the test on Plasmopara viticola is given as “L (L shows the control value of 50% or less)”. Also, the “Test B control value” with Botrytis cinerea was “H (H shows the control value more than 50%)”. Besides, in the test with Alternaia brassicicola, the “Test C control value” was “H (H shows the control value more than 50%)”.
Consider `CCn1c(-c2ccc(OC)cc2Cl)c(-n2cc(Cl)cn2)cc(Cl)c1=O` [Compound 159], for which, in test [1], the “Test D control value” is “H (H shows the control value more than 50%)”. Besides, the “Test E control value” with Puccinia recondita is reported as “H (H shows the control value more than 50%)”. The “Test G control value” in the test on Plasmopara viticola is reported as “L (L shows the control value of 50% or less)”. Further, the “Test B control value” with Botrytis cinerea is on record as “H (H shows the control value more than 50%)”. The “Test C control value” in the test with Alternaia brassicicola is given as “H (H shows the control value more than 50%)”.
With `CCn1c(-c2c(F)cc(F)cc2F)c(-n2cc(I)cn2)cc(Cl)c1=O` [Compound 160], the “Test D control value” in test [1] is “L (L shows the control value of 50% or less)”. In addition, the “Test E control value” with Puccinia recondita is “L (L shows the control value of 50% or less)”. Moreover, the “Test G control value” with Plasmopara viticola is reported as “L (L shows the control value of 50% or less)”. The “Test B control value” in the test on Botrytis cinerea is given as “H (H shows the control value more than 50%)”. Besides, in the test with Alternaia brassicicola, the “Test C control value” is on record as “H (H shows the control value more than 50%)”.
